One molecule from patent US20250376539A1 (KIRA PHARMACEUTICALS SUZHOU, published 2025) can be followed below.

Assay [1] deals with T1, human complement C2 in normal human serum (human, UniProt P06681 21-752).
T1 sequence: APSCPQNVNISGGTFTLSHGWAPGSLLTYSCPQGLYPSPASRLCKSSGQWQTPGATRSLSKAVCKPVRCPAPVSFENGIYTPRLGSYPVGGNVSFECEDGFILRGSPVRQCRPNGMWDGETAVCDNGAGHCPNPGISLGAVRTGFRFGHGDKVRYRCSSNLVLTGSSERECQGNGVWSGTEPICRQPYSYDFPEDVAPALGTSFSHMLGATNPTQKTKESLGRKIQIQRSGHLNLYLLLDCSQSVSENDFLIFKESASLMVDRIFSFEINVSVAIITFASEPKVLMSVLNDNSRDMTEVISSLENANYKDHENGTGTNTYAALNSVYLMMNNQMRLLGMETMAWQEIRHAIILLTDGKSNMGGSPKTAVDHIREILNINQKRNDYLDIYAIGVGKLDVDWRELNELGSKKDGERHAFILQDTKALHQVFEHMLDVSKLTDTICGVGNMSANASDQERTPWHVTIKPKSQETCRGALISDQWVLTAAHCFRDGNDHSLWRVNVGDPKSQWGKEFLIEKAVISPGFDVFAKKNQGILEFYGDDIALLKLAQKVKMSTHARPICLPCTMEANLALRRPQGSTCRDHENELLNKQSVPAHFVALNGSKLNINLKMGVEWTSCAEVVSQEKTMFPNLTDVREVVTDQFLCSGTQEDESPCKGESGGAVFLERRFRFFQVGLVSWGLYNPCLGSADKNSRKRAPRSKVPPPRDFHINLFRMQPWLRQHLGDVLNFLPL
Kind of assay: cell-based or functional assay.

Assay [2] addresses T2, recombinant cynomolgus (cyno) complement C2 (XP_005553508.1), C-terminal 6His-tag, made in house (CHO cell … (cynomolgus monkey (Macaca fascicularis), UniProt P06681 21-752 (human entry))).
T2 construct: also called cyno C2; Cyno C2
T2 chain: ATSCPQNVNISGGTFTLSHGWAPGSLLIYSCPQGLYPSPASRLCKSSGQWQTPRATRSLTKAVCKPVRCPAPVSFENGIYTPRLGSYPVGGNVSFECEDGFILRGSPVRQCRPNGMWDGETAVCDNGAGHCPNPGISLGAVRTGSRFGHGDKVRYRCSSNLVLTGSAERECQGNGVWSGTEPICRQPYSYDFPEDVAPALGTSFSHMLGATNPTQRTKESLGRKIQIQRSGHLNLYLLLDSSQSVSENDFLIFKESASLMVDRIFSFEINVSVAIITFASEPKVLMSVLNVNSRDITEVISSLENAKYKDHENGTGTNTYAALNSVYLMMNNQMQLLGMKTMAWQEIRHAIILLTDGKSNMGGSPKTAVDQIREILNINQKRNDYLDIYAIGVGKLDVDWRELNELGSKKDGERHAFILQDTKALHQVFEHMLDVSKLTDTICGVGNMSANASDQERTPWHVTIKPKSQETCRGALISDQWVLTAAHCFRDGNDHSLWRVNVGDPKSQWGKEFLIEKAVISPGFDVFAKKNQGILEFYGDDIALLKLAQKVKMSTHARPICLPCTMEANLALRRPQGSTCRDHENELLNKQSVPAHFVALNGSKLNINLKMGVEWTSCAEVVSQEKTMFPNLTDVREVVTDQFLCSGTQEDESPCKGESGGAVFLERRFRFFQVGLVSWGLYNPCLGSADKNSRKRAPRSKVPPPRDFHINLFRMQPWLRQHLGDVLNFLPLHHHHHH
The assay is described as follows: binding kinetics (BLI presumed).

The target in assay [3] is T3, recombinant human complement C2 (NP_000054.2), C-terminal 6His-tag, made in house (CHO cell expression) (human, UniProt P06681 21-752).
T3 construct: a linker before the tag is not described; also called human C2; Human C2
T3 sequence: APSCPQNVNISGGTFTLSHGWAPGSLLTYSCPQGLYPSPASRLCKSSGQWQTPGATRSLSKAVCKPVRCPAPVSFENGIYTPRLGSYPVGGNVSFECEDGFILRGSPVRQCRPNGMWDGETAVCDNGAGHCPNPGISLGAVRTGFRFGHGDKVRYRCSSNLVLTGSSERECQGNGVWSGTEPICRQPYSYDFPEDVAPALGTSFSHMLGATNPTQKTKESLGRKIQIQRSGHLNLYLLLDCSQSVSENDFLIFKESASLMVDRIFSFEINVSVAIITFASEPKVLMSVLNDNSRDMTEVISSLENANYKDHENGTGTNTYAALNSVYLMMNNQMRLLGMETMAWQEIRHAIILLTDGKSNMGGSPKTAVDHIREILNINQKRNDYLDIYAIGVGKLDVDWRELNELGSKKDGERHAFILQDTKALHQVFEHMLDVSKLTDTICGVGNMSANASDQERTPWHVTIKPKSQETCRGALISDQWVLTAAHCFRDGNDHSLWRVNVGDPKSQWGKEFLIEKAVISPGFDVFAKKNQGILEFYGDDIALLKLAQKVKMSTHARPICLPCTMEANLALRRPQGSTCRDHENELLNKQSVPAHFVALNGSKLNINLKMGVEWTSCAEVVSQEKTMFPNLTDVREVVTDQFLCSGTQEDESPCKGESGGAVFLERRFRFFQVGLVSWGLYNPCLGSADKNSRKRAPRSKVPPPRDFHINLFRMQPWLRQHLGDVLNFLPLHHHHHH
Kind of assay: binding kinetics, neutral pH (BLI presumed).

The target in assay [4] is T3, recombinant human complement C2 …. The assay is described as follows: BLI (Gator), antibody on probe; 600 s association at pH 7.4, 600 s dissociation at pH 7.4. The protocol:
(§1) The histidine mutant constructs in Table 4 were tested for their pH-dependent dissociation from human C2. Probe-immobilized anti-C2 antibodies were incubated with C2 at pH 7.4 for 600s, followed by a 600s dissociation period in K Buffer at pH 7.4 or pH 5.8. The data were processed and analyzed by the Gator evaluation software.
(§2) Non-fusion mAb were used for comparison.

Assay [5] has as its target T2, recombinant cynomolgus (cyno) …. Described as above. The protocol: as §1, §2

B1: 69.44FH (Factor H 1-5 fusion with 69.44; FH1-5 fused to the heavy chain C-terminus) (other)
heavy: QVQLVQSGAEVKKPGASVKVSCKASGYSFTTYYMYWVRQAPGQGLEWMGIITPSGGSTTYAQKFQDRVTMTRDASTTTVYMELSSLRSEDTAVYYCARGYEGSYGFDHWGQGTLVTVSSASTKGPSVFPLAPCSRSTSESTAALGCLVKDYFPEPVTVSWNSGALTSGVHTFPAVLQSSGLYSLSSVVTVPSSSLGTKTYTCNVDHKPSNTKVDKRVESKYGPP[human IgG4 Fc with S228P M428L N434A (EU numbers) not shown]EDCNELPPRRNTEILTGSWSDQTYPEGTQAIYKCRPGYRSLGNIIMVCRKGEWVALNPLRKCQKRPCGHPGDTPFGTFTLTGGNVFEYGVKAVYTCNEGYQLLGEINYRECDTDGWTNDIPICEVVKCLPVTAPENGKIVSSAMEPDREYHFGQAVRFVCNSGYKIEGDEEMHCSDDGFWSKEKPKCVEISCKSPDVINGSPISQKIIYKENERFQYKCNMGYEYSERGDAVCTESGWRPLPSCEEKSCDNPYIPNGDYSPLRIKHRTGDEITYQCRNGFYPATRGNTAKCTSTGWIPAPRCTLKP
light: SYELTQPPSVSLSPGQTASITCSGDKLGNKYTCWYQQKPGQSPVLVIYQDNKRPSGIPERFSGSNSGNTATLTISGTQAMDEADYYCQTWDSSTAVFGGGTKLTVLGQPKAAPSVTLFPPSSEELQANKATLVCLISDFYPGAVTVAWKADSSPVKAGVETTTPSKQSNNKYAASSYLSLTPEQWKSHRSYSCQVTHEGSTVEKTVAPTECS
notes: Antibody-factor H fusion protein
Broadly, the Kd is a measure of binding affinity in units of concentration. Broadly, the koff is a measure of how fast the partners let go of each other. Usually kon stands for the second-order rate constant of association. As for B1, in assay [1], the “IC50, Mannan-C3b ELISA (lectin pathway), 1% human serum” value stood at 1.31 nM; the “IC50, Mannan-C3b ELISA (lectin pathway), 50% human serum” value worked out at 141 nM; the “IC50, inhibition of sheep RBC lysis, 1% human serum” value was found to be 0.51 nM; the “IC50, inhibition of sheep RBC lysis, 50% human serum” value worked out at 30.5 nM. For the same molecule, in assay [2], the Kd is 0.192 nM, the koff worked out at 3.86e-05 s⁻¹ and the kon came to 200000 M⁻¹ s⁻¹. In assay [3], the Kd is 0.00602 nM, the koff amounted to 1.17e-06 s⁻¹ and the kon was found to be 195000 M⁻¹ s⁻¹. Besides, in assay [4], the “Dissociation (%) pH 7.4” value was 1.71%. Moreover, the “Dissociation (%) pH 7.4” value in assay [5] was 1.4%.
